# From a collection of fitness landscapes (doi:10.1016/j.celrep.2020.107928)
# The full ranking holds about 81,000 sequences; the median of “one-hybrid fitness for binding NBS DNA” is about -0.1, and the highest 2% start at about 0.36. The list shows a part of the results.
# B1: Caulobacter ParB omega fusion; a variant is named by its letters at X, in order, B8GW30 (parent)
# chain: MESVVVGEPGMSEGRRGLGRGLSALLGEVDAAPAQAPGEQLGGSREAPIEILQRNPDQPRRTFREEDLEDLSNSIREKGVLQPILVRPSPDTAGEYQIVAGERAWRAAQRAGLKTVPIMVRELDDLAVLEIGIIENVQRADLNVLEEALSYKVLMEKFERTQENIAQTIGKSXSHVANXMRLLXLPDEVQSYLVSGELTAXHARAIAAAADPVALAKQIIEGGLSVRETEALARKAPNLSAGKSKGGRPPRVKDTDTQALESDLSSVLGLDVSIDHRGSTGTLTITYATLEQLDDLCNRLTRGI
# Variants of: B1
# Assay: one-hybrid fitness for binding NBS DNA (the Noc-binding site; scaled: cognate 1, non-cognate 0); higher = stronger binding
# Settings: with NBS DNA site
# How it was run: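 Fitness here means the log change in variant-to-wild-type read ratio between plasmids sequenced before and after selection. That scale was set so cognate equals 1 and non-cognate equals 0. The selection was a bacterial one-hybrid screen of Caulobacter ParB libraries, four specificity codons randomised, in E. coli USO carrying a HIS3 reporter with the site 19 bp from the promoter, grown 48 hours at 37°C on M9-minus-histidine with 0.1 mM IPTG and 5 mM 3-AT.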
row,Variant,one-hybrid fitness for binding NBS DNA
1,RCMF,≤ 0.2
2,ALLI,≤ 0.2
3,TTWV,≤ 0.2
4,YNYC,≤ 0.2
5,KVFC,≤ 0.2
6,QTWA,0.367
7,HSHV,≤ 0.2
8,TAYK,≤ 0.2
9,QQND,≤ 0.2
10,SARP,≤ 0.2
11,HANV,≤ 0.2
12,SAAF,≤ 0.2
13,QPSY,≤ 0.2
14,KLGM,≤ 0.2
15,IVYG,≤ 0.2
16,EDAC,≤ 0.2
17,VVYI,≤ 0.2
18,TVFW,≤ 0.2
19,LHVG,≤ 0.2
20,PHYT,≤ 0.2
21,AFIG,≤ 0.2
22,TRSM,≤ 0.2
23,PWVM,≤ 0.2
24,ARVV,≤ 0.2
25,YAGR,≤ 0.2

row,Variant,one-hybrid fitness for binding NBS DNA
1,INHT,≤ 0.2
2,DTPD,≤ 0.2
3,APMT,≤ 0.2
4,LTTF,≤ 0.2
5,KANS,≤ 0.2
6,WVSP,≤ 0.2
7,PTLY,≤ 0.2
8,DSLT,≤ 0.2
9,VYVI,≤ 0.2
10,CHVT,≤ 0.2
11,LYHG,≤ 0.2
12,NRYR,≤ 0.2
13,KTHI,≤ 0.2
14,HTCL,≤ 0.2
15,QRYN,0.319
16,NVPG,≤ 0.2
17,YGHL,≤ 0.2
18,LPYA,≤ 0.2
19,RSFL,≤ 0.2
20,EVKF,≤ 0.2
21,QHDI,≤ 0.2
22,FQKG,≤ 0.2
23,TDNT,≤ 0.2
24,SWKC,≤ 0.2
25,TAKI,≤ 0.2

row,Variant,one-hybrid fitness for binding NBS DNA
1,SYRE,≤ 0.2
2,NLLK,≤ 0.2
3,WDTL,≤ 0.2
4,MQEG,≤ 0.2
5,CNRS,≤ 0.2
6,KIWY,≤ 0.2
7,VTRD,≤ 0.2
8,HHQS,≤ 0.2
9,ANPA,≤ 0.2
10,CRPR,≤ 0.2
11,QMNT,0.52
12,LESS,≤ 0.2
13,PNAK,≤ 0.2
14,PNTQ,≤ 0.2
15,VFVS,≤ 0.2
16,QPTL,≤ 0.2
17,MHWT,≤ 0.2
18,GWWS,≤ 0.2
19,EWRV,≤ 0.2
20,NYNR,≤ 0.2
21,HLVG,≤ 0.2
22,FMYR,≤ 0.2
23,SRHV,≤ 0.2
24,GDNL,≤ 0.2
25,IALV,≤ 0.2

row,Variant,one-hybrid fitness for binding NBS DNA
1,YQWR,≤ 0.2
2,HYMR,≤ 0.2
3,TKSH,≤ 0.2
4,LTTL,≤ 0.2
5,SDPV,≤ 0.2
6,IGFC,≤ 0.2
7,MRDA,≤ 0.2
8,LKNC,≤ 0.2
9,PLRN,≤ 0.2
10,NSYG,≤ 0.2
11,RLSA,≤ 0.2
12,WHGE,≤ 0.2
13,LVGT,≤ 0.2
14,SNCY,≤ 0.2
15,FRWS,≤ 0.2
16,KDNT,≤ 0.2
17,WQTC,≤ 0.2
18,NTAF,≤ 0.2
19,RNHQ,≤ 0.2
20,TISK,≤ 0.2
21,RYEV,≤ 0.2
22,MPPP,≤ 0.2
23,PYGT,≤ 0.2
24,GIFT,≤ 0.2
25,QTSV,0.235

row,Variant,one-hybrid fitness for binding NBS DNA
1,YEVL,≤ 0.2
2,CTAT,≤ 0.2
3,NVHG,≤ 0.2
4,QNAM,≤ 0.2
5,GGWL,≤ 0.2
6,RMRF,≤ 0.2
7,THKC,≤ 0.2
8,RNDE,≤ 0.2
9,LAQI,≤ 0.2
10,AQVT,≤ 0.2
11,YPVC,≤ 0.2
12,PMYV,≤ 0.2
13,SCAD,≤ 0.2
14,TRLQ,≤ 0.2
15,YMKV,≤ 0.2
16,PLEN,≤ 0.2
17,QYLH,≤ 0.2
18,NKII,≤ 0.2
19,RYWY,≤ 0.2
20,RIFH,≤ 0.2
21,VEAV,≤ 0.2
22,VRMV,≤ 0.2
23,WWYR,≤ 0.2
24,SATR,≤ 0.2
25,YSHK,≤ 0.2

row,Variant,one-hybrid fitness for binding NBS DNA
1,RWLW,≤ 0.2
2,VRPT,≤ 0.2
3,MPTF,≤ 0.2
4,RHGI,≤ 0.2
5,YHQG,≤ 0.2
6,QIRS,0.539
7,CSIG,≤ 0.2
8,CKGT,≤ 0.2
9,LKWF,≤ 0.2
10,NDRA,≤ 0.2
11,RQPL,≤ 0.2
12,NVTR,≤ 0.2
13,DKKM,≤ 0.2
14,MQLC,≤ 0.2
15,HCRC,≤ 0.2
16,SPLQ,≤ 0.2
17,QRYF,0.227
18,YLNN,≤ 0.2
19,PIMV,≤ 0.2
20,YLKC,≤ 0.2
21,AAYH,≤ 0.2
22,KSRL,≤ 0.2
23,APTN,≤ 0.2
24,LLPP,≤ 0.2
25,VLRI,≤ 0.2

row,Variant,one-hybrid fitness for binding NBS DNA
1,TIVL,≤ 0.2
2,EDQR,≤ 0.2
3,PKPW,≤ 0.2
4,ENER,≤ 0.2
5,HMKN,≤ 0.2
6,AGIG,≤ 0.2
7,RIAW,≤ 0.2
8,RWCA,≤ 0.2
9,MAAA,≤ 0.2
10,TNNG,≤ 0.2
11,IFPP,≤ 0.2
12,QTTI,≤ 0.2
13,HSTY,≤ 0.2
14,FTLS,≤ 0.2
15,PTTQ,≤ 0.2
16,WLPS,≤ 0.2
17,PMTC,≤ 0.2
18,GRRY,≤ 0.2
19,NTGW,≤ 0.2
20,KHNV,≤ 0.2
21,RAKI,≤ 0.2
22,SSCL,≤ 0.2
23,APMV,≤ 0.2
24,SWSK,≤ 0.2
25,AIKT,≤ 0.2

row,Variant,one-hybrid fitness for binding NBS DNA
1,QARV,0.376
2,HCAT,≤ 0.2
3,NQLM,≤ 0.2
4,LHRR,≤ 0.2
5,QRFE,≤ 0.2
6,QMQT,0.392
7,SQCT,≤ 0.2
8,HKRP,≤ 0.2
9,TRWG,≤ 0.2
10,FMGT,≤ 0.2
11,RHCE,≤ 0.2
12,LYQC,≤ 0.2
13,KRYW,≤ 0.2
14,CFKS,≤ 0.2
15,AYAR,≤ 0.2
16,QMFY,≤ 0.2
17,WHYV,≤ 0.2
18,CKVS,≤ 0.2
19,LWWG,≤ 0.2
20,KQWT,≤ 0.2
